Measurements reported in paper PMC4336329 (PLoS ONE, 2015).
The whole screen tested about 310,000 compounds, of which about 2,200 (0.71%) showed an effect of 50% or more. The effect is printed as a negative number. This is one part of the list.

Biological target: human ether-à-go-go-related gene (hERG) potassium channel (human, UniProt Q12809)
Test: primary screen, population patch clamp on CHO cells stably expressing hERG

Sequence of human ether-à-go-go-related gene (hERG) potassium channel (Q12809 whole entry, looked up): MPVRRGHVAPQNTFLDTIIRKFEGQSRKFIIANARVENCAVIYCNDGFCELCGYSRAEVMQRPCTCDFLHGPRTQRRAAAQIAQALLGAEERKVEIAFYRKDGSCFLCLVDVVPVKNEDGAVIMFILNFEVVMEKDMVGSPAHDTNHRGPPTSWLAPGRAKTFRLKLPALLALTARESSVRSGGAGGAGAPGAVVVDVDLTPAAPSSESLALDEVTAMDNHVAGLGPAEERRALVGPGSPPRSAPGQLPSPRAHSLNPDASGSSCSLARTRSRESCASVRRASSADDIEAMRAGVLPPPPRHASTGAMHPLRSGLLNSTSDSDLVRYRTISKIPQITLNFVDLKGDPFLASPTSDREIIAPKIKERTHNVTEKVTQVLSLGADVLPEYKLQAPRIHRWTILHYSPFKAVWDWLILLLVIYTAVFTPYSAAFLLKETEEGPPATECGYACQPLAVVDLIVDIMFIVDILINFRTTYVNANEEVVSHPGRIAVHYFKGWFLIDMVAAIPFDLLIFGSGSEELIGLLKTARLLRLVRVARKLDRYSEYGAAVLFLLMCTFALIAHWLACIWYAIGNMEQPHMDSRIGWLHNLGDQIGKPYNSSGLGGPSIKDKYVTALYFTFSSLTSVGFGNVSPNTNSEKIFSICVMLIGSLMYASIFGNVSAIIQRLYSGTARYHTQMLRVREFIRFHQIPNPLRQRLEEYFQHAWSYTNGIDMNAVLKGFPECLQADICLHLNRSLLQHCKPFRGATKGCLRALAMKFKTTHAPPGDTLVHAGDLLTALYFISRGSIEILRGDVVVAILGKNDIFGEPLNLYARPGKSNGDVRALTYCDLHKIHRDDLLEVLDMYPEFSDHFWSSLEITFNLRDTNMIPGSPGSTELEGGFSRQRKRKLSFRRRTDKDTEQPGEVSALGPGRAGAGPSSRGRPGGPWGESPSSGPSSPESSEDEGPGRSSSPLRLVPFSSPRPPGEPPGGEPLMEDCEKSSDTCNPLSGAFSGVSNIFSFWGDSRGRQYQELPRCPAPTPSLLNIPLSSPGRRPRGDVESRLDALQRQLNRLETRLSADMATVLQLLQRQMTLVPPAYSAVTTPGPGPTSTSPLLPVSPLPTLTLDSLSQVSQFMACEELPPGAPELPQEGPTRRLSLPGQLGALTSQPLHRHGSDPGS

Going from `COC1CCCCC1Nc1cc(C)ccc1C` (centres unmarked) to `Cc1ccc(SCC(=O)NC2CCCCCC2)cc1`, the “hERG current change (%, negative = inhibition) at 1uM” value falls from 13.1% to 10.8%.

Going from `Nc1nnc(SCC(=O)Nc2cccc3ccccc23)s1` to `CC(=O)Nc1ccc(OCc2cccc3ccccc23)cc1`, the “hERG current change (%, negative = inhibition) at 1uM” value falls from 14.5% to 12.2%.

First: CCOc1ccccc1-c1nc(-c2ccncc2)no1
Second: C(=N\N=C\c1ccccn1)/c1ccccn1
The “hERG current change (%, negative = inhibition) at 1uM” value of the first is lower: 0.802% for the first, 5.15% for the second.

First: CC(C)C[C@H](NC(=O)c1nc[nH]c1C(=O)NCc1ccc(CNC(=O)OC(C)(C)C)cc1)C(=O)OC(C)(C)C
Second: COc1ccc(CNC(=O)C/C(C)=N/NC(=O)COc2ccc(Br)cc2)cc1
The “hERG current change (%, negative = inhibition) at 1uM” value of the first is higher: 10.6% for the first, -7.04% for the second.

Going from `Cc1ccc(-c2nn3c(C)nnc3c3ccccc23)cc1S(=O)(=O)NCCN1CCOCC1` to `CCCOc1ccc(C(=O)Nc2cc(-c3nn4c(C)nnc4s3)ccc2C)cc1`, the “hERG current change (%, negative = inhibition) at 1uM” value rises from -3.77% to 14.9%.

Compared with `CC(=O)c1ccc(NC(=O)CSc2nc(C)cc(C)c2C(N)=O)cc1`, `Cc1cccc(C)c1NC(=O)CSc1nnnn1-c1ccc(C(=O)O)cc1` is lower in “hERG current change (%, negative = inhibition) at 1uM” value: 8.07% for the first, -12.7% for the second.

First: O=C(CC12CC3CC(C1)CC(CC(=O)N1CCCC1)(C3)C2)N1CCCC1
Second: OC(COC1CCCCC1)CN1CCN(c2ccccc2)CC1 (centres unmarked)
The “hERG current change (%, negative = inhibition) at 1uM” value of the first is higher: -0.18% for the first, -3.58% for the second.

Compared with `COC(=O)c1nc2nc(C)cc(C(F)(F)F)n2n1`, `COC(=O)c1ccccc1S(=O)(=O)N1CCC(C(=O)OCC(=O)NCC(F)(F)F)CC1` is lower in “hERG current change (%, negative = inhibition) at 1uM” value: 9.06% for the first, -0.155% for the second.

First: COc1ccc(CCNS(=O)(=O)c2cc3c(cc2C)NC(=O)CO3)cc1OC
Second: COc1cc(OC)c(N(C)C(=O)CCNC(=O)Cn2cnc3ccccc3c2=O)cc1Cl
The “hERG current change (%, negative = inhibition) at 1uM” value of the first is higher: 12.4% for the first, -12.5% for the second.

Going from `O=C(NCc1cccnc1)NC1CC(=O)N(c2ccc3c(c2)OCCO3)C1` (centres unmarked) to `O=C(NCCCn1ccnc1)Nc1ccc2c(c1)OCO2`, the “hERG current change (%, negative = inhibition) at 1uM” value rises from 12.8% to 18.8%.

Compared with `COc1ccccc1N1CCN(C(=O)c2cc(-c3ccccc3)on2)CC1`, `COc1ccccc1NC(=O)CN1CCN(c2ccc(Cl)cc2)CC1` is lower in “hERG current change (%, negative = inhibition) at 1uM” value: 16.1% for the first, -3.43% for the second.

First: CCOC(=O)c1ccc(N)cc1
Second: COc1cc(C(=O)OCCN2CCOCC2)ccc1O
The “hERG current change (%, negative = inhibition) at 1uM” value of the first is higher: 16.1% for the first, 4.59% for the second.

First: COc1cccc(C(=O)NCC2(c3ccccc3)CCCC2)c1
Second: COc1cccc(CNC(=O)c2ccc(OC)c(S(=O)(=O)NC3CCCC3)c2)c1
The “hERG current change (%, negative = inhibition) at 1uM” value of the first is lower: 0.524% for the first, 2.45% for the second.

Compared with `CCN(CC)CC.CCOc1ccccc1-n1c(=S)sc2c(=O)n(-c3ccc(C)cc3)c(=S)[nH]c21`, `CCOC(=O)C1=C(c2ccccc2)Nc2c(c(=O)n(C)c(=O)n2C)C1c1ccc(O)c(OC)c1` (centres unmarked) is lower in “hERG current change (%, negative = inhibition) at 1uM” value: 15.9% for the first, 2.01% for the second.

Compared with `COCC(=O)OCC(=O)Nc1cc(C(C)(C)C)nn1-c1ccccc1`, `COCC(C)n1c(C)cc(C(=O)COC(=O)/C=C/c2cccc(F)c2)c1C` (centres unmarked) is lower in “hERG current change (%, negative = inhibition) at 1uM” value: 13.6% for the first, -16.4% for the second.

First: COCCOC(=O)c1c(NC(=O)CNCc2ccco2)sc(C(N)=O)c1C
Second: Cc1onc(-c2c(F)cccc2Cl)c1C(=O)OCC(=O)NC(N)=O
The “hERG current change (%, negative = inhibition) at 1uM” value of the first is lower: 5.76% for the first, 10.6% for the second.

First: Cc1cc(=O)n2c(nc3ccccc32)[nH]1
Second: Cc1cc(NC(=O)CN2C(=O)c3ccccc3S2(=O)=O)no1
The “hERG current change (%, negative = inhibition) at 1uM” value of the first is lower: 3.11% for the first, 13.8% for the second.

Going from `CC(NC(=O)Cc1ccsc1)c1ccc(F)cc1` (centres unmarked) to `O=C(NCCc1ccc(F)cc1)c1ccc2c(=O)n3c(nc2c1)CCC3`, the “hERG current change (%, negative = inhibition) at 1uM” value falls from 12.8% to -10.9%.

Going from `O=C(NCC1CCN(c2ccc(S(=O)(=O)N3CCOCC3)cc2)CC1)Nc1ccccc1` to `O=C(c1ccc(N2CCN(S(=O)(=O)c3ccccc3)CC2)c([N+](=O)[O-])c1)N1CCOCC1`, the “hERG current change (%, negative = inhibition) at 1uM” value falls from 17.9% to 0.77%.

Compared with `COc1ccc(Cl)cc1NS(=O)(=O)c1c(C)[nH]c(C)c1C(=O)N1CCCCC1`, `O=C(CNc1cc(S(=O)(=O)N2CCCC2)ccc1OCC(F)(F)F)Nc1cccc(C(F)(F)F)c1` is lower in “hERG current change (%, negative = inhibition) at 1uM” value: 9.72% for the first, 5.75% for the second.

Compared with `C=CCNC(=S)NNc1ncnc2sc3c(c12)CC(C)(C)OC3`, `C=CCNC(=O)C(=O)c1cccn1-c1ccsc1C(=O)OC` is higher in “hERG current change (%, negative = inhibition) at 1uM” value: 2.71% for the first, 9.95% for the second.

Going from `COc1ccccc1OCC(=O)N/N=C/c1c(O)ccc2ccccc12` to `COC(=O)Cc1c(O)ccn(Cc2cccc3ccccc23)c1=O`, the “hERG current change (%, negative = inhibition) at 1uM” value falls from 8.41% to 7.7%.

Going from `O=C(NN=C1CCN(Cc2ccccc2)CC1)c1ccccc1` to `O=C(CN1CCN(C(c2ccccc2)c2ccccc2)CC1)NC(=O)NCc1ccco1`, the “hERG current change (%, negative = inhibition) at 1uM” value falls from 7.93% to 3.5%.

Going from `Cc1ccc(OCC(=O)N2CCc3ccccc3C2)c(Br)c1` to `COc1cc(C2c3c(oc4ccccc4c3=O)C(=O)N2c2ccc(C)cn2)ccc1O` (centres unmarked), the “hERG current change (%, negative = inhibition) at 1uM” value falls from 13.6% to -0.622%.

First: CC(C)(C)NC(=O)CSc1nnc(Cc2ccc3c(c2)OCO3)n1C1CCCCC1
Second: COc1cc(OC)cc(-n2nnnc2SCC(=O)NC2CCCC2)c1
The “hERG current change (%, negative = inhibition) at 1uM” value of the first is higher: 13% for the first, -2.92% for the second.

Compared with `CCC(C)Sc1cc(-c2nc3ccccn3c2NC2CCCCC2)ccc1OC.O=C(O)C(F)(F)F` (centres unmarked), `COc1cc(C(=O)NCc2cn3ccccc3n2)cc(OC)c1OC` is higher in “hERG current change (%, negative = inhibition) at 1uM” value: 5.67% for the first, 8.31% for the second.

Compared with `CSCCC(NC(N)=O)C(=O)Nc1ccc2ccccc2c1` (centres unmarked), `O=[N+]([O-])c1ccc2nc(NCCCO)nc(-c3ccccc3)c2c1` is lower in “hERG current change (%, negative = inhibition) at 1uM” value: 18.9% for the first, 7.41% for the second.

First: COc1cccc(NC(=O)c2csc3c2CCCC3)c1
Second: O=C(NC(=S)Nc1cccc(Cl)c1N1CCCCC1)c1cccs1
The “hERG current change (%, negative = inhibition) at 1uM” value of the first is higher: 23.4% for the first, 18.2% for the second.

Compared with `O=C(N=C1SC2CS(=O)(=O)CC2N1c1cc(Cl)ccc1Cl)C1CCCO1` (centres unmarked), `O=C(CCC1CCCC1)N=C1SC2CS(=O)(=O)CC2N1c1ccccc1F` (centres unmarked) is higher in “hERG current change (%, negative = inhibition) at 1uM” value: -0.486% for the first, 6.62% for the second.

Compared with `CCOC(=O)CSc1nnc(Cc2ccccc2)n1CC1CCCO1` (centres unmarked), `CCN(CC)C(=O)CSc1nnc(-c2cccs2)n1Cc1ccco1` is lower in “hERG current change (%, negative = inhibition) at 1uM” value: 4.04% for the first, 2.57% for the second.

First: COC(=O)CSc1nc(NC(C)C)nc(N(C)C)n1
Second: CCNc1nc(NCC)n2c(SCC(=O)Nc3ccc(OC)c(OC)c3)nnc2n1
The “hERG current change (%, negative = inhibition) at 1uM” value of the first is lower: 7.13% for the first, 12.9% for the second.

First: COc1cc(/C=N/Nc2nc3ccccc3[nH]2)cc(OC)c1O
Second: CC(N=Cc1c(O)[nH]c(=O)[nH]c1=O)c1ccccc1 (centres unmarked)
The “hERG current change (%, negative = inhibition) at 1uM” value of the first is lower: -8.16% for the first, 7.84% for the second.

Going from `O=C(Nc1cc2c3c(c1)CC(=O)N3CCC2)C1CC1` to `O=C(OCC(=O)N1CCCC1=O)C1CCN(S(=O)(=O)c2ccc(Cl)c(C(F)(F)F)c2)CC1`, the “hERG current change (%, negative = inhibition) at 1uM” value rises from 9.06% to 12.7%.

Going from `CCOC(=O)C1C(=O)CC(C)(O)C(C(=O)OCC)C1c1ccc([N+](=O)[O-])cc1` (centres unmarked) to `CCOC(=O)N1CCC(N(CCN(C)C)C(=S)Nc2ccc(OCC)cc2)CC1`, the “hERG current change (%, negative = inhibition) at 1uM” value rises from 0.692% to 6.4%.

Going from `CCN(CC)C(=O)C1CCN(CC2CC=CCC2)CC1` (centres unmarked) to `CCN(CC)C(=O)CSc1nc2ccccc2o1`, the “hERG current change (%, negative = inhibition) at 1uM” value rises from 5.06% to 13.3%.

Going from `COc1ccc2oc(C(=O)Nc3nc4ccc(S(C)(=O)=O)cc4s3)c(C)c2c1` to `COc1ccc(S(=O)(=O)N(C)c2ccc(C(=O)Nc3ccccc3C(=O)N3CCOCC3)cc2)cc1`, the “hERG current change (%, negative = inhibition) at 1uM” value falls from 15.9% to 4.72%.

Going from `c1cc(CNCC2CCCO2)ccn1` (centres unmarked) to `Cc1ccccc1NC(=O)C1CCCN1C(=O)NC1CCCCC1` (centres unmarked), the “hERG current change (%, negative = inhibition) at 1uM” value falls from 20.9% to 17.4%.

Going from `CCCCn1c(N)c(N(CC(C)C)C(=O)C2CCCO2)c(=O)[nH]c1=O` (centres unmarked) to `Cc1ccc(-c2nc(CS(=O)CC(=O)NCCN(CC(C)C)CC(C)C)c(C)o2)cc1` (centres unmarked), the “hERG current change (%, negative = inhibition) at 1uM” value falls from 17.2% to -4.56%.

Compared with `CC(C)[C@H](NC(=O)c1ccccc1Cl)C(=O)OCC(=O)NC(=O)NC1CCCC1`, `Cc1cc(NC(=O)c2cc([N+](=O)[O-])ccc2Cl)no1` is higher in “hERG current change (%, negative = inhibition) at 1uM” value: 3.98% for the first, 13.2% for the second.

First: O=c1cc(NS(=O)(=O)c2ccccc2)nc(SCc2ccccc2Cl)[nH]1
Second: C=CCN1CC(=O)N2C(c3ccccc3)c3[nH]c4ccccc4c3C[C@H]2C1=O (some centres unmarked)
The “hERG current change (%, negative = inhibition) at 1uM” value of the first is higher: 8.22% for the first, 6.93% for the second.

First: CCCCCCCNC(=O)C1(CC2CC(c3ccc(Cl)cc3)=NO2)CCN(C(=O)OC(C)(C)C)CC1 (centres unmarked)
Second: O=C(/C=C/c1ccc(Cl)cc1)Nc1ccc(CN2CCOCC2)cc1
The “hERG current change (%, negative = inhibition) at 1uM” value of the first is higher: 18.9% for the first, 1.34% for the second.

Going from `O=C(/C=C/c1cccs1)c1cc(F)ccc1OC(=O)N1CCOCC1` to `COc1ccc2c(c1)[nH]c1c(=O)n(CCCN3CCOCC3)cnc12`, the “hERG current change (%, negative = inhibition) at 1uM” value rises from -5.84% to 8.51%.

First: CCC1(CC)Cc2ccccc2-c2[nH]c(=S)[nH]c(=O)c21
Second: O=S(=O)(c1ccc(F)cc1)N1CCC(n2cnc3ccccc32)CC1
The “hERG current change (%, negative = inhibition) at 1uM” value of the first is higher: 7.03% for the first, -3.52% for the second.

Compared with `Cc1ccc(C)c(NC(=O)/C(C#N)=C/c2cn(CC(=O)NCc3ccco3)c3ccccc23)c1`, `CN(C)c1ccc(/C=N/NC(=O)CNC(=O)/C=C/c2ccco2)cc1` is lower in “hERG current change (%, negative = inhibition) at 1uM” value: 14.5% for the first, 8.77% for the second.

`O=C(C[n+]1ccc(C(=O)N/N=C/c2ccc(Cl)cc2Cl)cc1)c1ccccc1.[Br-]` was tested, and the “hERG current change (%, negative = inhibition) at 1uM” value was -63.3%.
